Measurements as given in US20060063236A1 (AEROVANCE, published 2006).

Experiments:
[1] = biological target: T1, IL-4 receptor alpha chain (IL-4Rα) (human, UniProt P24394 26-825); assay: cell-based or functional assay
T1 sequence (looked up): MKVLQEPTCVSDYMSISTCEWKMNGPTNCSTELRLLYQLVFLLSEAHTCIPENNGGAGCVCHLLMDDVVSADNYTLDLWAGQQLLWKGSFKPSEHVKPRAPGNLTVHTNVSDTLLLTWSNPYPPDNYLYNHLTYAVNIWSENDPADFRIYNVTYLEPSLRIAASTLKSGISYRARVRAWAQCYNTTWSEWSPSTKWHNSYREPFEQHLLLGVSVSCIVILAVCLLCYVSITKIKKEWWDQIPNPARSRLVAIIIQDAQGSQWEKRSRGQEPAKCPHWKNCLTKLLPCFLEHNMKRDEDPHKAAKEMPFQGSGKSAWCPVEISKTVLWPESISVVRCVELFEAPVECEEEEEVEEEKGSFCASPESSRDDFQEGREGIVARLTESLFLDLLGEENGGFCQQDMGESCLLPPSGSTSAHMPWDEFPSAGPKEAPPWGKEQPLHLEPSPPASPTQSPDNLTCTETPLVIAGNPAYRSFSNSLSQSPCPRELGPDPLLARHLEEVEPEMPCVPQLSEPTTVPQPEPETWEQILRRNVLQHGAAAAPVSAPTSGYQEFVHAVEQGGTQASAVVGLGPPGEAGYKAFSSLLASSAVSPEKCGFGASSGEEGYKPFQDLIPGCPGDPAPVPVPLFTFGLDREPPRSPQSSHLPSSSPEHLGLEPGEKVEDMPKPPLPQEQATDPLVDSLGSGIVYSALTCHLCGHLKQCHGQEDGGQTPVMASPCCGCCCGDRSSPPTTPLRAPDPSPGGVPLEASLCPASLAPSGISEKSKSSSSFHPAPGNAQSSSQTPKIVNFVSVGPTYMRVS

[2] = biological target: T2, IL-9 receptor alpha chain (IL-9Rα) (human, UniProt Q01113 41-521); assay: cell-based or functional assay
T2 sequence (looked up): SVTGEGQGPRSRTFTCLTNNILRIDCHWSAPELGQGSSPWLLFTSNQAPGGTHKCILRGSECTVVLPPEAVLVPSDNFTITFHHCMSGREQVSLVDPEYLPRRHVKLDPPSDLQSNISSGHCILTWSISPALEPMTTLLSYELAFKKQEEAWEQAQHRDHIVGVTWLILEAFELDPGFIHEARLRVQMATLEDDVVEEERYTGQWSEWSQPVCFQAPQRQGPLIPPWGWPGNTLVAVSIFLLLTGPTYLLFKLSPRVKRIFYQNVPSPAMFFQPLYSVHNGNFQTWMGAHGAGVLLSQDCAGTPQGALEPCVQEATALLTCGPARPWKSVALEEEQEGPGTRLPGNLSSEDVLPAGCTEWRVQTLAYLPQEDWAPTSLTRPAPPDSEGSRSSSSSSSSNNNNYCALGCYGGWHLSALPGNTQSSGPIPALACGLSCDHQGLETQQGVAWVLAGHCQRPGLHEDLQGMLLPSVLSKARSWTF

B1: untagged IL-9RA/IL-4RA chimeric polypeptide (ligand)
chain: [about 120 residues not given here]HKCDITLQEIIKTLNSLTEQKTLCTELTVTDIFAASKNTTEKETFCRAATVLRQFYSHHEKDTRCLGATAQQFHRHKQLIRFLKRLDRNLWGLAGLNSCPVKEANQSTLENFLERLKTIMDEKDSKCSS
With B1 as the binder, how does the “IC50, inhibition of IL-4 induced TF-1 cell proliferation (AlamarBlue)” value [1] read?
The value was 0.000624 µM.

What about the “IC50, inhibition of IL-9 induced Mo7e cell proliferation (AlamarBlue)” value [2] of the same binder?
Its value is 0.0296 µM.
